Substrate in the data set: COc1ccc2c(c1)[C@]13CCCC[C@@H]1[C@H](C2)N(C)CC3
The data set is described as follows: not read. To be noted: other: CYP3A4OR; DCFH-DA 2.5 μM; NADPH 1 mM; Michaelis-Menten fit; pH 7.4.

As a reminder, the Km is the substrate concentration at which the rate is half of its maximum.

B1: CYP3A4 (Homo sapiens) (protein)
chain: MALIPDLAMETWLLLAVSLVLLYLYGTHSHGLFKKLGIPGPTPLPFLGNILSYHKGFCMFDMECHKKYGKVWGFYDGQQPVLAITDPDMIKTVLVKECYSVFTNRRPFGPVGFMKSAISIAEDEEWKRLRSLLSPTFTSGKLKEMVPIIAQYGDVLVRNLRREAETGKPVTLKDVFGAYSMDVITSTSFGVNIDSLNNPQDPFVENTKKLLRFDFLDPFFLSITVFPFLIPILEVLNICVFPREVTNFLRKSVKRMKESRLEDTQKHRVDFLQLMIDSQNSKETESHKALSDLELVAQSIIFIFAGYETTSSVLSFIMYELATHPDVQQKLQEEIDAVLPNKAPPTYDTVLQMEYLDMVVNETLRLFPIAMRLERVCKKDVEINGMFIPKGVVVMIPSYALHRDPKYWTEPEKFLPERFSKKNKDNIDPYIYTPFGSGPRNCIGMRFALMNMKLALIRVLQNFSFKPCKETQIPLKLSLGGLLQPEKPVVLKVESRDGTVSGA
With B1, the Km turned out to be 24.2 ± 9.2 µM.

The values are drawn from patent US20020058295A1, “Method of screening candidate compounds for susceptibility to oxidative metabolism” (priority 1998, published 2002).
